Results on 45 molecules are retold here after PMC4336329 (PLoS ONE, 2015).

The campaign covered roughly 310,000 compounds. About 2,200 (0.71%) showed an effect of 50% or more. The effect is printed as a negative number. This is one part of the list.

In this test the target is human ether-à-go-go-related gene (hERG) potassium channel (human, UniProt Q12809). Description: primary screen, population patch clamp on CHO cells stably expressing hERG.
human ether-à-go-go-related gene (hERG) potassium channel, sequence (Q12809 whole entry, looked up): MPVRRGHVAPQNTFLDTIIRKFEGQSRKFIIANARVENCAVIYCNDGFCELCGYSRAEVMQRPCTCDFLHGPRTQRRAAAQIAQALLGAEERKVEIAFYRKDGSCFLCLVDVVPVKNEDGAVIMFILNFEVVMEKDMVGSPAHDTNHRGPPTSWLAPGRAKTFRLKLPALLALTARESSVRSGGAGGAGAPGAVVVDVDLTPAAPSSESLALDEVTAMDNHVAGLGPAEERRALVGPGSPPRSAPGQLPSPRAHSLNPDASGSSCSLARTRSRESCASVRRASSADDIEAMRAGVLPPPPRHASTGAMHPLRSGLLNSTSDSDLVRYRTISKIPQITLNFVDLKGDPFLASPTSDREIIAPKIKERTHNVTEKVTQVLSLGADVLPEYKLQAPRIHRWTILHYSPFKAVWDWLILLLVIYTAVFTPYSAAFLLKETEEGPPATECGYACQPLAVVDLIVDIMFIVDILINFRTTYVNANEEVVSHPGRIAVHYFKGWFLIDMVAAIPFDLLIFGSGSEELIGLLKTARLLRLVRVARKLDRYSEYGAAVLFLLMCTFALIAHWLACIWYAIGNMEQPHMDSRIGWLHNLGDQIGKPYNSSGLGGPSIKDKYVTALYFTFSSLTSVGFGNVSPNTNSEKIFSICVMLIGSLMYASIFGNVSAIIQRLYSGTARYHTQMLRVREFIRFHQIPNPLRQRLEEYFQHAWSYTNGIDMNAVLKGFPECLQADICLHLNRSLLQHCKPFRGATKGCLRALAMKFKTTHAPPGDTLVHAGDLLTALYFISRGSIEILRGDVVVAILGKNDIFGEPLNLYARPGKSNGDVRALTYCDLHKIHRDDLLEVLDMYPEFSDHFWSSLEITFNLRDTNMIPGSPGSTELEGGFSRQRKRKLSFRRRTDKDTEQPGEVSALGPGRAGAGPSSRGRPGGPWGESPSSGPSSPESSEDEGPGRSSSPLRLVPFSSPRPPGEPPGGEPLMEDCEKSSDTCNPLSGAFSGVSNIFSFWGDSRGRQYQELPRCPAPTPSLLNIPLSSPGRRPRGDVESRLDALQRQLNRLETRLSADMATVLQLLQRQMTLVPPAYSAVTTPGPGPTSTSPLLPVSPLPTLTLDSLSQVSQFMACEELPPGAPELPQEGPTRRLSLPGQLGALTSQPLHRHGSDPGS
Turning to `O=C(CSc1nnc2ccccn12)c1ccc(Cl)cc1`, the “hERG current change (%, negative = inhibition) at 1uM” value is recorded as 4.39%.
Then `N#Cc1cccc(-c2nnc(SCc3ccccc3C#N)o2)c1`, with -6.73%; and `O=C(NC(=O)N1CCN(c2ccc(F)cc2)CC1)c1ccccc1`, with 4.42%; and `Cn1c(CNC(=O)c2ccc(Cl)cc2)nnc1SCC(=O)N1CCOCC1`, with 17.2%.
The result for `O=C(Nc1ccccc1)Nc1ccc(F)cc1F` reads 13.3%; that for `COc1cc(C(=O)Nc2cc(C)ccn2)ccc1OCC(=O)N1CCOCC1`, 4.29%; that for `Fc1ccc(-n2nnc(-c3ccccc3Cl)n2)cc1`, 16.2%.
Regarding `CN(C)C(=S)Nc1ccc(Cc2ccncc2)cc1`, the “hERG current change (%, negative = inhibition) at 1uM” value is 13.7%.
Consider `Cc1sc2ncnc(-n3nnc4ccccc43)c2c1C`, for which the “hERG current change (%, negative = inhibition) at 1uM” value worked out at 8.8%.
Then `COc1ccc(S(=O)(=O)N2CCC(C(N)=O)CC2)cc1`, with 14.4%; and `COc1ccc(CCNC(=O)c2c([S-])n(-c3ccc(C)cc3)c3cccc[n+]23)cc1`, with 10.5%.
In the case of `O=C(NC1(C(F)(F)F)Oc2ccccc2O1)N1CCCC1`, the “hERG current change (%, negative = inhibition) at 1uM” value amounted to 1.78%.
As to `CC(C)(C)c1cnnn1-c1ccc(C(=O)CCl)cc1`, the “hERG current change (%, negative = inhibition) at 1uM” value is given as 10.9%.
The result for `COc1ccc(C(=O)NCC(c2ccco2)N(C)C)cc1S(=O)(=O)NCc1ccc(Cl)cc1` (stereo not drawn) reads -3.71%.
The result for `Cc1ccc(SCC(=O)Nc2cc(C)on2)cc1` reads 10.1%; that for `CCn1ncc(C2=NOC(C(=O)Nc3cccc(C(C)=O)c3)C2)c1C` (stereo not drawn), -2.93%; that for `COCc1cc(C2C(C(=O)c3ccco3)=C(O)C(=O)N2CCOCCO)ccc1O` (stereo not drawn), -1.36%.
`C=CCn1c(COc2ccc(CC)cc2)nnc1SCC(=O)NC1CCS(=O)(=O)C1` (stereo not drawn): the “hERG current change (%, negative = inhibition) at 1uM” value is 8.88%.
Regarding `COc1ccc(NC(=S)N(CCO)Cc2cc3c(C)cc(C)cc3[nH]c2=O)cc1`, the “hERG current change (%, negative = inhibition) at 1uM” value is reported as -4.9%.
Then `O=C(CC1OC(=O)c2ccccc21)NCC1COc2ccccc2O1` (stereo not drawn), with -12.1%; and `c1ccc(OCCCc2nc(-c3cccnc3)no2)cc1`, with 3.09%.
The result for `CC(=O)Nc1ccc(NC(=O)c2cc(=O)c3ccc(C)cc3o2)cc1` reads 14.9%; that for `O=C(N/N=C/c1ccc([N+](=O)[O-])cc1)c1ccccc1OCc1ccccc1`, 8.09%; that for `COc1ccc(/C=N/OCC(=O)Nc2nc3ccccc3s2)cc1`, 1.7%.
As to `CCOc1ccccc1Oc1nc(-c2ccccc2O)nc2ccccc12`, the “hERG current change (%, negative = inhibition) at 1uM” value came to 3.92%.
The result for `CCN(CC)c1ccc(C(=O)NN)cc1` reads 6.35%; that for `Cn1c(CNC(=O)C(Cc2ccccc2)NC(=O)c2cccc(F)c2)cc(=O)n(C)c1=O` (stereo not drawn), -0.274%.
For the molecule `CC(=O)C1=NOC2C(=O)N(c3ccc(Cl)cc3)C(=O)C12` (stereo not drawn), the “hERG current change (%, negative = inhibition) at 1uM” value is listed as 9.03%.
Then `Cc1cccc(OCc2nnc(SCC(=O)N3CCc4ccccc43)n2C)c1`, with 7.27%; and `Cc1ccc(C)c(N2CCN(C(=O)CN3C(=S)NC(C)(C)CC3C)CC2)c1` (stereo not drawn), with 5.55%; and `Cc1cc(/C=C(/C#N)C(=O)O)c(C)n1-c1cccc2ccccc12`, with 10.4%.
The result for `C=CCN(c1ccccc1C(=O)NCC(=O)O)S(=O)(=O)c1ccccc1C` reads 18%.
Then `CCOC(=O)CSc1nnc(-c2ccncc2)o1`, with 13.2%.
Consider `COC(=O)COn1c(SCC(=O)OC)nc2ccccc2c1=O`, for which the “hERG current change (%, negative = inhibition) at 1uM” value is reported as -1.93%.
In the case of `Cc1nn(C(C)C(=O)NC2CCC(C)CC2)c(=O)c2nn(-c3ccccc3)c(C)c12` (stereo not drawn), the “hERG current change (%, negative = inhibition) at 1uM” value is 1.8%.
As for `O=C(NCC(=O)N1CCN(c2ccccc2O)CC1)c1ccco1`, the “hERG current change (%, negative = inhibition) at 1uM” value was 9.05%.
The result for `COc1ccccc1NC(=O)Cn1nnc(C(=O)NCCc2ccccc2)c1N` reads 6.86%.
The result for `O=C(CN1CCOCC1)Nc1ncc(Cc2cccc3ccccc23)s1` reads -5.03%; that for `COc1cc(OC)c(OC)cc1/C=C/c1cc(C(=O)O)c2ccccc2n1`, 4.43%; that for `CCOC(=O)N1CCN(c2cc(=O)n(-c3ccccc3Cl)c(=O)[nH]2)CC1`, 13.3%.
On to `CC12CC(c3ccccc3O1)C(C(=O)OCc1ccccc1)C(=O)N2` (stereo not drawn), for which the “hERG current change (%, negative = inhibition) at 1uM” value was determined as 7.32%.
Turning to `COc1ccc([N+](=O)[O-])cc1N(CC(=O)NC(C(C)C)C(C)C)S(C)(=O)=O`, the “hERG current change (%, negative = inhibition) at 1uM” value amounted to 4.06%.
Regarding `CC(=O)Nc1ccc(Nc2c3ccccc3nc3ccccc23)cc1`, the “hERG current change (%, negative = inhibition) at 1uM” value was -34.6%.
The result for `CCOC(=O)C1(CC)NC(c2ccco2)C2C(=O)N(c3ccc(C)cc3)C(=O)C21` (stereo not drawn) reads 6.54%; that for `C/C(=N\NC(=O)c1ccccc1O)c1cccc(NC(=O)c2ccccc2)c1`, 8.4%.
